# Reference: PubChem BioAssay (NCATS)
# The other results are listed elsewhere or left out. The main result of the screen is listed elsewhere. These columns were measured beside it and carry no call. The list favours compounds with an active or inconclusive main result. Words in brackets tell the shape of the fitted curve; partial curves, single points and poor fits give uncertain potencies.
# Assay: qHTS Assay for Lipid Storage Modulators (AID 1519)
# Details: Drosophila S3 cells, BODIPY lipid droplet/cell ratio, laser cytometry; measured here: lipid (BODIPY) channel AC50; cells loaded with oleic acid
# Method in brief: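 Cells seeded at 5,000 per well were treated with compounds over a concentration series and loaded with oleic acid (400 uM, as added). Lipid droplet fluorescence (488 nm excitation, 500-530 nm channel) was read by laser-scanning cytometry and normalized to 20 uM Triacsin C.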
# Tags give direction and shape of the fitted curve.
row,SMILES,AC50
1,COc1ccccc1CNc1ccnc(-c2cccc(C#N)c2)n1,"282 nM [rising, full curve]"
2,CCNc1ncc2nc(-c3ccc(OC)cc3)c(=O)n(CCc3ccccc3)c2n1,"79.4 nM [rising, full curve]"
3,O=c1c(-c2ccccc2)nc2cnc(N3CCNCC3)nc2n1-c1ccccc1,"12600 nM [rising, partial curve, poor fit]"
4,O=c1c(CCc2ccccc2)nc2cnc(N3CCOCC3)nc2n1C1CC1,"398 nM [rising, full curve, poor fit]"
5,COCCn1c(=O)c(CCc2ccccc2)nc2cnc(Nc3ccccc3)nc21,"1780 nM [rising, partial curve]"
6,COCCn1c(=O)c(-c2ccc(OC)cc2)nc2cnc(N3CCNCC3)nc21,"794 nM [rising, partial curve, poor fit]"
7,CN(C)C(=O)c1ccc(-c2nccc(NCc3ccccc3)n2)cc1,"141 nM [rising, full curve, poor fit]"
8,COc1ccc2[nH]c(I)c(CCNC(C)=O)c2c1,"3550 nM [rising, full curve]"
9,O=C(O)c1c2ccccc2cc2ccccc12,"28200 nM [rising, partial curve]"
10,CN1CCN(c2ncnc3ccc(-c4cccnc4)cc23)CC1,"2510 nM [rising, full curve]"
11,CS(=O)(=O)Nc1cccc(-c2nccc(NCc3cccs3)n2)c1,"1410 nM [rising, full curve, poor fit]"
12,COc1ncc2nc(-c3cn(C)c4ccccc34)c(=O)n(-c3ccccc3)c2n1,"39800 nM [rising, single point]"
13,COc1cccc(-c2cc(NCc3cccnc3)ncn2)c1,"2820 nM [rising, full curve]"
14,C[C@@H]1O[C@@H](OC[C@H]2O[C@@H](Oc3c(-c4cccc(O)c4O)oc4cc(O)cc(O)c4c3=O)[C@H](O)[C@@H](O)[C@@H]2O)[C@H](O)[C@H](O)[C@H]1O,"158 nM [falling, full curve, poor fit]"
15,COCCn1c(=O)c(-c2ccc(F)cc2)nc2cnc(N(C)C)nc21,"3550 nM [rising, full curve]"
16,CO/N=C(\C(=O)N[C@@H]1C(=O)N2C(C(=O)O)=C(CSc3nc(=O)c(O)nn3C)CSC12)c1csc(N)n1 (stereo not given in full),"39800 nM [rising, single point]"
17,COc1cccc(Cn2c(=O)c(-c3cccs3)nc3cnc(OCc4ccccc4)nc32)c1,"2820 nM [rising, full curve]"
18,O=c1c(-c2cccc(F)c2)nc2cncnc2n1Cc1ccccc1,"794 nM [rising, full curve]"
19,COc1ccccc1CNc1nc(-c2ccc3c(c2)OCO3)nc2ccccc12,"35.5 nM [rising, full curve]"
20,CCNc1ncc2nc(-c3cccs3)c(=O)n(Cc3ccc(F)cc3)c2n1,"251 nM [rising, full curve, poor fit]"
21,COc1ccc(-c2nc3cnc(OC)nc3n(Cc3ccc(F)cc3)c2=O)cc1,"31.6 nM [rising, full curve, poor fit]"
22,O=C1C=CC2=C3c4cc(O)c(O)cc4CC3(O)COC2=C1O (stereo not given),"14100 nM [rising, partial curve, poor fit]"
23,O=c1c(-c2cccc(F)c2)nc2cncnc2n1C1CC1,"2000 nM [rising, partial curve, poor fit]"
24,COCCn1c(=O)c(-c2cc(F)cc(F)c2)nc2cnc(Oc3ccc(OC)cc3)nc21,"70.8 nM [rising, full curve]"
25,COc1cccc(Nc2ncc3nc(-c4cc(F)cc(F)c4)c(=O)n(C4CC4)c3n2)c1,"35.5 nM [rising, full curve]"
26,COc1cccc(-c2nc(NCc3cccnc3)c3ccccc3n2)c1,"1120 nM [rising, full curve]"
27,c1cc(NC2CC2)nc(-c2ccoc2)n1,"1580 nM [rising, full curve]"
28,COc1ccc2c(=O)cc(-c3ccccc3)oc2c1O,"31600 nM [rising, partial curve]"
29,Cc1cnc(CNc2nc(-c3c(C)noc3C)nc3ccccc23)cn1,"794 nM [rising, full curve]"
30,Cn1ccc(O)c(C#N)c1=O,"39800 nM [rising, single point]"
